Assay results from the supplement of paper PMC12355420.
Counter-ions that a name gives are not always drawn. The list shows a part of the results. Most values come without repeats; read them as rough.

Each molecule was assayed on HeLa VPS33A KO + NLuc-VPS33A R498W (assay: relative mutant VPS33A R498W amount (NanoLuc luminescence) vs DMSO (fraction of DMSO); HeLa model of a glycosaminoglycan (GAG) storage disease; KI is knock-in and KO knock-out; SDC1 is syndecan 1; higher = higher mutant VPS33A level). Conditions: 50 µM; 24 h.
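Further: screen of an FDA-approved drug library, NanoLuc luminescence read after lysing the treated cells, taken as a measure of mutant VPS33A protein stability.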

Row | SMILES | relative mutant VPS33A R498W amount
1 | CC=CC(=O)N(CC)c1ccccc1C [Crotamiton] | 1.29
2 | CCn1cc(C(=O)O)c(=O)c2cnc(N3CCCC3)nc21 [Piromidic Acid] | 0.617
3 | NS(=O)(=O)NCCNc1nonc1/C(=N/O)Nc1ccc(F)c(Br)c1 | 0.546
4 | Cc1c(NC(=O)c2cccnc2)c(=O)n(-c2ccccc2)n1C [Nifenazone] | 0.867
5 | Cc1cn(-c2cc(NC(=O)c3ccc(C)c(Nc4nccc(-c5cccnc5)n4)c3)cc(C(F)(F)F)c2)cn1 [Nilotinib monohydrochloride monohydrate] | 0.904
6 | O=c1[nH]cnc2c1ncn2[C@H]1CC[C@@H](CO)O1 [Didanosine] | 1.09
7 | Cc1ncc([N+](=O)[O-])n1CC(O)CCl (stereo not drawn) [Ornidazole] | 0.988
8 | NC(CO)(CO)CO [Trometamol] | 1.02
9 | CC(=O)OCC[N+](C)(C)C [Acetylcholine Chloride] | 1.19
10 | C1COC(NC(C2CC2)C2CC2)=N1 [Rilmenidine Phosphate] | 1.16
11 | NCCCS(=O)(=O)O [Tramiprosate] | 1.06
12 | CC[C@H]1OC(=O)[C@H](C)[C@@H](O[C@H]2C[C@@](C)(OC)[C@@H](O)[C@H](C)O2)[C@H](C)[C@@H](O[C@@H]2O[C@H](C)C[C@H](N(C)C)[C@H]2O)[C@](C)(O)C[C@@H](C)[C@@H]2N[C@@H](COCCOC)O[C@H]([C@H]2C)[C@]1(C)O [Dirithromycin] | 0.886
13 | CCOC(=O)[C@H](CCc1ccccc1)N[C@@H](C)C(=O)N1[C@H](C(=O)O)C[C@@H]2CCC[C@@H]21 [Ramipril] | 1.34
